Among all 48,000 compounds or so, about 1,200 (2.5%) were called active. About 2% were inconclusive and are not listed.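 How the source made its calls: active means activation of at least 60% and not above a set upper limit (about 1 call in 100 departs from these limits); inconclusive means activation of 40% to 60%, or above that upper limit; inactive means activation under 40%.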 The list shows a part of the results.
target: Probable G-protein coupled receptor 32 (Homo sapiens) (UniProt O75388); assay: qHTS for Agonists of Human Resolvin D1 Receptor DRV1; settings: CHO-K1 GPR32 beta-arrestin PathHunter luminescence, 90 min; at 76.9 µM; hits give high values; zero percent set by DMSO-only wells; further: 0% is about no effect
Sequence of UniProt O75388 (O75388 whole entry, looked up, the tested form may be a part): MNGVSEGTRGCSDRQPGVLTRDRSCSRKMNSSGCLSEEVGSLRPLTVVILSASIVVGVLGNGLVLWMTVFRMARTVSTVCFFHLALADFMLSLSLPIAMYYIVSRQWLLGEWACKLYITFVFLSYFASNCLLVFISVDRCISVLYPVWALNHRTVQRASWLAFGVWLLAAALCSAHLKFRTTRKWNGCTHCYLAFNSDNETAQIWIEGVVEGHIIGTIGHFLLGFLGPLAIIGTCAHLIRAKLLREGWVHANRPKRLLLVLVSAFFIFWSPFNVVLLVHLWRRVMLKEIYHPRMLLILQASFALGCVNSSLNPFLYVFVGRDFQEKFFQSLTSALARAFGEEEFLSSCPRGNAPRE
In short: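 Agonism was scored by beta-Gal fragment complementation (chemiluminescent read, 1 h detection at ambient temperature) reporting beta-arrestin binding to GPR32 in engineered CHO-K1 cells. Compound treatment lasted 90 min at 37 C, normalized to a DMSO basal control.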

Row | SMILES | activation
1 | Oc1ccc(Cl)cc1Cc1cc(Cl)ccc1O | active: 69%
2 | COc1ccc(NC(=O)c2cc(S(=O)(=O)N3CCOCC3)ccc2OC)cc1 | inactive: -12.3%
3 | COc1cc(Cl)c(C)cc1NC(=O)C1CCN(c2nc3ccccc3n3cccc23)CC1 | inactive: -27.8%
4 | Cc1ccc(C)c(NC(=O)N2CCN(C(=O)c3nsc4ccccc34)CC2)c1 | inactive: -6.33%
5 | COc1ccc(S(=O)(=O)Nc2cccc(-c3ccc(N4CCCC4)nn3)c2)c(OC)c1 | inactive: -5.47%
6 | COc1ccc(OC)c(NS(=O)(=O)c2ccc3c(c2)C(C)(C)C(=O)N3C)c1 | inactive: -6.53%
7 | NC(=O)C1CCN(C(=O)c2ccc(NC(=O)c3nsc4ccccc34)cc2)CC1 | inactive: 1.97%
8 | CCOc1ccccc1N(CC)C(=O)Cn1ncc2c([nH]c3ccccc32)c1=O | inactive: 16.3%
9 | COc1ccc(CNC(=O)c2cc3cc4cc(OC)ccc4nc3o2)cc1 | inactive: -4.28%
10 | COc1cccc(CNC(=O)c2ccc3c(c2)c(C)c(C)n3Cc2ccccc2)c1 | inactive: -14.7%
11 | Cc1nnc(N2CCC(C(=O)NC3CCCCC3)CC2)c2nn(-c3ccccc3)c(C)c12 | inactive: -14.6%
12 | Clc1cccc(-c2ccc(CNCCSc3nnnn3-c3ccccc3)o2)c1 | inactive: 14.6%
13 | CC(=O)c1ccc(NC(=O)c2nc3ccccc3nc2N2CCCCC2)cc1 | inactive: -37.4%
14 | O=C(c1ccccc1)N1CCN(CCc2ccncc2)CC1 | inactive: -3.09%
15 | CCOC(=O)c1[nH]c(C)c(CCC(=O)N2CCN(c3cccc(OC)c3)CC2)c1C | inactive: -9.83%
16 | CCCCN(CC)C(=O)CSc1nc2n[nH]c(C)c2c(=N)n1-c1cccc(Cl)c1 | inactive: -17.4%
17 | CCC(=O)N1CCc2cc(Br)cc(S(=O)(=O)CCC(=O)NCc3ccccc3OC)c21 | inactive: -13.3%
18 | CCOc1ccc(NC(=O)Cn2ncc3c2-c2cc(C)ccc2OC3)cc1 | inactive: -1.25%
19 | Cc1ccc(NC(=O)Cc2ccc(-n3c(C)nc4cccnc43)cc2)c(Cl)c1 | inactive: 33.9%
20 | Cc1ccc(-c2noc(-c3ccccc3NC(=O)c3ccccc3)n2)cc1 | inactive: 2.77%
21 | Cc1ccc(CNC(=O)C(=O)Nc2c3c(nn2-c2ccccc2)CSC3)cc1 | inactive: -14%

Row | SMILES | activation
22 | COc1ccccc1C(=O)NCCn1cc(SCC(=O)Nc2ccccc2F)c2ccccc21 | inactive: 37.4%
23 | COc1ccc(CCNC(=O)C(=O)Nc2ccccc2F)cc1 | inactive: -1.58%
24 | CC1CCN(S(=O)(=O)c2ccc3c(c2)N(CC(=O)NC(C)c2ccccc2)C(=O)CS3)CC1 (stereo not drawn) | inactive: -1.13%
25 | O=C(NCc1ccccc1)c1ccc(CNS(=O)(=O)c2ccc(Br)cc2)cc1 | inactive: 6.88%
26 | COc1ccccc1CNS(=O)(=O)c1ccc2c(c1)CC(C)N2C(C)=O (stereo not drawn) | inactive: 40.3%
27 | Cc1ccc(C)c(N2CCN(S(=O)(=O)c3ccc4[nH]c5c(c4c3)CCCCC5)CC2)c1 | inactive: -9.85%
28 | CC(C)Cn1cc(NC(=O)N2CCN(c3cccc(Cl)c3)CC2)c2ccccc2c1=O | inactive: -52%
29 | COc1cc(Cl)c(S(=O)(=O)NCCc2c(C)[nH]c3c(C)cccc23)cc1Cl | inactive: 4.81%
30 | CCc1ccc(NC(=O)N2CCOc3ccc(Cl)cc32)cc1 | inactive: -13%
31 | Cc1ccc(-c2nc(NC(=O)CSc3cc(C)c4ccccc4n3)ns2)cc1 | inactive: 1.74%
32 | Cc1cc(C)c(NC(=O)c2cc(S(=O)(=O)N3CCC4(CC3)OCCO4)ccc2F)c(C)c1 | inactive: -9.52%
33 | COC(=O)c1ccc(NC(=O)CC2C(=O)N(c3cccc(OC)c3)C(=O)N2Cc2cccs2)cc1 (stereo not drawn) | inactive: -26.2%
34 | O=C(O)c1cc(=O)c2ccccc2o1 | inactive: -27.2%
35 | COC(=O)c1cc2oc3ccccc3c2n1Cc1nc(-c2ccc(Cl)cc2)oc1C | inactive: -5.1%
36 | CCN(C(=O)Cn1nnc2sc3c(c2c1=O)CCC(C(C)(C)C)C3)c1cccc(C)c1 (stereo not drawn) | inactive: -20.4%
37 | CCCCn1c(SCC(=O)c2ccccc2)nc2c(sc3ccccc32)c1=O | inactive: 8.92%
38 | Cc1nc2c(-c3ccc(F)cc3)c(C)nn2c(C)c1CCC(=O)N1CCN(c2ccccc2)CC1 | inactive: -6.06%
39 | CCc1ccc(CNC(=O)c2nn(-c3ccc(C)cc3)c(=O)c3c2c2ccccc2n3C)cc1 | inactive: -8.66%
40 | COc1cc(CCC(=O)NCc2ccc3c(c2)CCN3C(=O)c2ccccc2)cc(OC)c1OC | inactive: 1.47%
41 | CC(=O)c1ccc(N2CCN(C(=O)C3CCCN(S(=O)(=O)c4ccc(Br)s4)C3)CC2)cc1 (stereo not drawn) | inactive: 25.5%
42 | CCC1CN(S(=O)(=O)c2cc(-c3cc(C)no3)ccc2C)c2cc(C)ccc2O1 (stereo not drawn) | inactive: 6.23%

Row | SMILES | activation
43 | Cc1ccc(-n2nc3ccc(NC(=O)COc4ccccc4C)cc3n2)cc1 | inactive: 20.3%
44 | Cc1ccc(-c2nnc(Nc3cccc(Cl)c3)c3ccccc23)cc1S(=O)(=O)N1CCCCC1 | inactive: -29.9%
45 | Cc1ccc(-n2nc(CO)c(C(=O)NCCCCc3ccccc3)n2)cc1C | inactive: -23.8%
46 | CSc1ccc(CCNC(=O)c2cc(C)nc3c2c(C)nn3-c2ccccc2)cc1 | inactive: -14.3%
47 | COc1ccc(-c2nnc(SCC(=O)NCCc3ccc(OC)c(OC)c3)nc2-c2ccc(OC)cc2)cc1 | inactive: -24.7%
48 | Cc1ccc(C)c(N2CCN(S(=O)(=O)c3cc(-c4cc(C)no4)ccc3C)CC2)c1 | inactive: -14.6%
49 | O=C(CN1C(=O)C(c2ccc(F)cc2)=NC12CCCCCC2)Nc1ccccc1Cl | inactive: -27%
50 | Cc1cc(C)c(NC(=O)Cn2nc(-c3ccncc3)ccc2=O)c(C)c1 | inactive: -7.01%
51 | CCCn1c(=O)n(-c2ccccc2Cl)c(=O)c2sc3ccccc3c21 | inactive: -9.97%
52 | COc1ccc(-c2ccc3c(N)c(C(=O)Nc4ccc(C(F)(F)F)cc4)sc3n2)cc1OC | inactive: 3.17%
53 | CC1=Nc2cc(C(=O)NCc3ccccc3Cl)ccc2Sc2c(C)ccc(C)c21 | inactive: 10.3%
54 | CCOc1ccc(CCNC(=O)c2cn(C)c3ccc(S(=O)(=O)N4CCCCC4)cc3c2=O)cc1OCC | inactive: -3.48%
55 | Cc1cc(C)c(NC(=O)c2sc3nc(C)cc(C)c3c2NC(=O)c2ccccc2)c(C)c1 | inactive: -4.95%
56 | CCOC(=O)c1c(C)[nH]c(C)c1S(=O)(=O)N1CCC(C(=O)Nc2cc(Cl)ccc2OC)CC1 | inactive: 8.23%
57 | CC1=C(c2ccc(C)c(C)c2)S(=O)(=O)NC1=NCc1ccccc1Cl | inactive: -4.77%
58 | COc1ccccc1C(=O)Nc1cccc(C(=O)OCc2cc(=O)n3cc(C)sc3n2)c1 | inactive: -16%
59 | O=C(CCn1cnc2ccccc2c1=O)NCc1ccccc1Cl | inactive: 6.61%
60 | CCc1nc2nc(C)c(NS(=O)(=O)c3ccc(C(C)(C)C)cc3)c(=O)n2[nH]1 | inactive: 21.2%
61 | O=C(CNC(=O)c1ccc(F)cc1)OCc1cc(=O)n2nc(C3CC3)sc2n1 | inactive: 17.7%
62 | Cc1c(C(=O)Nc2cccc(C(F)(F)F)c2)oc2ccc3c(c12)C(=O)CC(C)(C)O3 | inactive: 14.9%
63 | CCc1nn2c(=O)cc(COC(=O)COc3ccc(OC)cc3)nc2s1 | inactive: 5.24%

Row | SMILES | activation
64 | COC(=O)CN1C(=O)CSc2ccc(S(=O)(=O)Nc3cc(C)ccc3C)cc21 | inactive: 8.6%
65 | CCC(=O)N1c2ccccc2CC1C(=O)NCCc1ccc(OC)c(OC)c1 (stereo not drawn) | inactive: -13.4%
66 | CCOC(=O)c1sc2ncn(CC(=O)Nc3ccc(OCC)cc3)c(=O)c2c1C | inactive: -4.91%
67 | COc1ccc(-c2nc(C)c(CCNS(=O)(=O)c3cc(Cl)ccc3Cl)s2)cc1 | inactive: -2.45%
68 | CCc1ccc(S(=O)(=O)Nc2cc3c(C(=O)OCc4ccccc4)c(C)oc3c3ccccc23)cc1 | inactive: 6.78%
69 | Cc1c(NC(=O)c2ccc(-c3cccc([N+](=O)[O-])c3)o2)cccc1-c1nc2cc(Cl)ccc2o1 | inactive: -6.24%
70 | COc1cccc(-n2c(=O)c3sc4ccccc4c3n(CC(=O)NC3CCCCC3)c2=O)c1 | inactive: -2.76%
71 | CCOC(=O)c1cc2c(=O)n3ccccc3nc2n(CCOC)c1=NC(=O)c1c(-c2ccccc2Cl)noc1C | inactive: -5.24%
72 | Cn1c(=O)oc2cc(S(=O)(=O)NCCC(=O)Nc3ccc(F)cc3F)ccc21 | inactive: 6.64%
73 | CCN(CC)S(=O)(=O)c1ccc(OC)c(-n2cnnn2)c1 | inactive: 0.0111%
74 | Cc1cc(OCC(=O)Nc2ncn[nH]2)ccc1Cl | inactive: 16.7%
75 | Cc1ccc(S(=O)(=O)N(CC(=O)Nc2ccc3c(c2)OCO3)c2cc(Cl)cc(Cl)c2)cc1 | inactive: -8.53%
76 | CC(C)CCNC(=O)Cc1ccc(NC(=O)N2CCCCc3ccccc32)cc1 | inactive: -6.28%
77 | COc1ccc(CNC(=O)Cn2c(=O)nc(-c3ccccc3)c3ccccc32)cc1OC | inactive: -0.968%
78 | CCCCC(=O)NC1CC(=O)N(c2ccc3c(c2)OCCO3)C1 (stereo not drawn) | inactive: -1.79%
79 | O=C(NCCC1=CCCCC1)c1ccc2c(c1)N(Cc1cccc(Cl)c1)C(=O)c1ccccc1S2=O (stereo not drawn) | inactive: -21%
80 | CCOc1cccc(C(c2c(C)n(C)n(-c3ccccc3)c2=O)c2c(C)n(C)n(-c3ccccc3)c2=O)c1OC | inactive: 0.149%
81 | COc1ccc2cc(C=O)ccc2c1 | inactive: -1.34%
82 | CCOc1ccc(NC(=O)c2nn(C)c3c2CS(=O)(=O)c2ccccc2-3)cc1 | inactive: 10.2%
83 | COc1ccc(CCNC(=O)CCCn2c(=O)c3ccccc3n(CC(=O)Nc3cc(Cl)ccc3C)c2=O)cc1OC | inactive: 26.6%

From PubChem BioAssay AID1346428 (National Center for Advancing Translational Sciences (NCATS), 2018)
